These results are taken from the RNAGym collection of RNA variant scans (doi:10.7554/elife.90254).

To fix the notation:
B1: LINE1-mini (parent)
chain: GGCAGAGCUCAACACAGCGUGGCAAAGUGGCUGUGGCUAGACUGCC

Read counts are not given, so values of variants with three or more changes are uncertain.

This series covers variants of B1. The series can be described thus: self-cleavage, relative activity (ratio to wild type); higher = more cleavage; in vitro, sequencing; the parent is a self-cleaving ribozyme.
With G1C C3A G5U, the self-cleavage was 0.26.
The value for G1C C15U U34A G36C G40U was 0.01; that for G1C G35C C45U was 0.04.
G1C C3U G27U G30U U38C C46A: the self-cleavage is 0.14.
The value for G1C C10A A14G was 0.01.
The value for G1C U9A G19A C46A was 0.1.
Consider G1C C13U U20A G21A A39U, for which the self-cleavage came to 0.03.
On to G1C G7C G27U C37A, for which the self-cleavage is 0.
With G1C G35C G40C the figure was 0.01; with G1C G7U G19U U32C, 0.04; with G1C C18A C46U, 0.04.
The value for G1C C31A C42G was 0.01; that for G1C G5U C10A U34G was 0.01.
On to G1C C18G G35U, for which the self-cleavage was 0.02.
With G1C C3U C8A G44A the figure was 0.35; with G1C G7C C15U G27C C42U, 0.01; with G1C G17U C23A U28G G35A, 0.
With G1C G7A U34A C42A the figure was 0.01; with G1C C8G G19A G21U C31G, 0.03; with G1C C10U A11U U32G U34G A39U, 0.01.
The value for G1C G40U G44A was 0.03.
Consider G1C G7C A14C, for which the self-cleavage is 0.01.
With G1C C3A C18U G29C the figure was 0.08; with G1C C10A C37U, 0.
Consider G1C G7C G29U U38A G44A, for which the self-cleavage came to 0.08.
As to G1C C10G A11C G22A A25C U38A, the self-cleavage amounted to 0.
G1C C15U G40U: the self-cleavage came out at 0.07.
Turning to G1C G36A C46A, the self-cleavage came out at 0.13.
With G1C G2A C31G U32G G40A the figure was 0.06.
With G1C G2U A14G, the self-cleavage worked out at 0.1.
With G1C C3U U20A C45A the figure was 0.09.
As to G1C G2A U9A C10U G17U G30C, the self-cleavage amounted to 0.02.
The value for G1C G17C U34C was 0.03; that for G1C C3G C10A G40U was 0.01; that for G1C G7C C8U A11U C45G was 0.01.
For G1C G33C C42U, the self-cleavage is 0.01.
The value for G1C C10G G21U C31U U34A was 0; that for G1C A25U G27C A39C was 0.
The value for G1C C10A A26G G27A G30C was 0.02.
For G1C C3U G19U U28C, the self-cleavage was 0.26.
With G1C C42A U43G the figure was 0.01; with G1C A25G A26U C42U, 0.03; with G1C C10A C18A C23U, 0.01.
Regarding G1C C18A G36C, the self-cleavage turned out to be 0.
The value for G1C C3G A11U A12G G21A G30A was 0.02.
The value for G1C C18U G21C was 0.23.
With G1C U9A G30A G36A U43A the figure was 0.01.
Take G1C G2A G40A: the self-cleavage is 0.06.
The value for G1C C3U G7A A26U G40C was 0.43; that for G1C A24G G36C was 0; that for G1C C8G G17A was 0.01.
With G1C C10U C15G the figure was 0.01.
With G1C G7U G29U G40A the figure was 0; with G1C C3G C15A A25U C45G, 0.13.
For the variant G1C C31G U38A, the self-cleavage is 0.01.
Consider G1C G2A G19C G21A, for which the self-cleavage came out at 0.15.
In the case of G1C C8G A12U A41C, the self-cleavage worked out at 0.01.
On to G1C G21U G33A G40C A41U, for which the self-cleavage is 0.01.
On to G1C C10A A16G G33U, for which the self-cleavage amounted to 0.
For G1C G17A C18A U20C G36A, the self-cleavage was 0.01.
The value for G1C G2U G5C C18U U32C was 0.04.
The value for G1C G5U G19A was 0.01; that for G1C C13A A26G G33A U43C was 0.01; that for G1C G27A C46U was 0.12.
The value for G1C G21U G22C was 0.09; that for G1C G5U G17A was 0.02; that for G1C G19U U20A was 0.06.
For G1C C8A G17U C18A A25U G40U, the self-cleavage came out at 0.04.
With G1C C13A C15U U38C the figure was 0.06; with G1C C18U U20G U28G U32C G40A, 0; with G1C C10U A12U G35C, 0.
The value for G1C C8G U20G U28C G29C G30U U34A was 0.01; that for G1C G19C U43C C45A was 0.02; that for G1C C3A U9G G29A C31G was 0.03.
Turning to G1C C3A U34G, the self-cleavage is 0.07.
With G1C U9A A39C the figure was 0.02.
The value for G1C G2C C3A G19A was 0.1.
With G1C C8U A41U C45G the figure was 0.07.
Regarding G1C C15G G27U G33U, the self-cleavage is 0.01.
As for G1C G7C C8A G40U, the self-cleavage turned out to be 0.05.
The value for G1C G33U G36U was 0.
As to G1C C10A G29U G33A, the self-cleavage stood at 0.01.
With G1C G2U U9G C23U the figure was 0.02; with G1C G7U U9C U28C C31U G33U G40C C45A, 0.03.
For the variant G1C C18G A25C A26U U28G C42A, the self-cleavage is 0.
The value for G1C G7U C18A G35C C37A was 0.01; that for G1C C10U U20A U38C was 0.02.
The value for G1C C8U A39U A41G was 0.01; that for G1C C8G G29U C31A was 0.
Consider G1C G7U A16C G33U C37G G40U, for which the self-cleavage worked out at 0.01.
With G1C C15A G30C C42U the figure was 0; with G1C C15G G40C, 0.01; with G1C G7C A11U A14G G29C G30U, 0.01.
With G1C C8U C15U G35U the figure was 0.02; with G1C C15G G21A G22A A25C G33A, 0.01.
The value for G1C C8A A14G G35C G40U was 0.03; that for G1C G2U G22U A26G C31U C42A C46U was 0.01.
Take G1C C18A G19U U20A A41G: the self-cleavage turned out to be 0.01.
With G1C G2A G33A A39C the figure was 0.02; with G1C C3U C10U C37A C46G, 0.01.
As to G1C G21U C23U, the self-cleavage was found to be 0.19.
With G1C C3G A4C A6C C10G the figure was 0.03; with G1C C23G C42A, 0.03.
As for G1C C23U A26U U32C U38A, the self-cleavage came out at 0.02.
With G1C C13G A26C the figure was 0; with G1C G2A G7A, 0.17; with G1C C3G A6U G29U, 0.21.
The value for G1C C15U G17A A26U was 0.04; that for G1C A39G C42A C45U was 0.04.
With G1C G17A G30U G36A U38A C45A, the self-cleavage is 0.05.
With G1C C18A G19C G21C G22C A25G A26U U32C G33A the figure was 0.01; with G1C G22C G44U, 0.01.
With G1C G5C U28C G40U G44U the figure was 0; with G1C C15A G17C G30C G36A, 0.
For G1C C10U U38C A39U C46U, the self-cleavage was 0.
With G1C G21U A26U the figure was 0.31.
Consider G1C C8A C23U, for which the self-cleavage came out at 0.07.
Turning to G1C G17U A41G, the self-cleavage came to 0.02.
With G1C G5C C10G A16G C18U U34C the figure was 0.01; with G1C A24U G29U G30C C46U, 0.04.
G1C G5U C18G C46A: the self-cleavage was determined as 0.01.
For G1C G7A C18A G40A C45A, the self-cleavage was 0.01.
With G1C C13A C31U U32G the figure was 0.02; with G1C G7U A14C G29C G30U C31A U32C, 0.01; with G1C C13U G21U, 0.08.
In the case of G1C G21U G30C, the self-cleavage worked out at 0.66.
With G1C G17U C45G the figure was 0.02; with G1C C8U A12C, 0.01; with G1C C15U G22U A24C C46U, 0.05.
With G1C G19U A25C G35C G36U the figure was 0.01; with G1C G19A G36U, 0.03.
The value for G1C G2U C10A C18G U28C was 0.02.
As to G1C C10A G17U C37U, the self-cleavage turned out to be 0.
The value for G1C G5A G27A C31U G33A U38A C45A was 0; that for G1C G29U G36A was 0.05.
With G1C G5A G21U A24G U28C U43C G44A, the self-cleavage turned out to be 0.01.
The value for G1C C3G C13A was 0.11; that for G1C C3U G7U G19C G30U U32G C42G was 0.04.
In the case of G1C A25U G29A C46U, the self-cleavage worked out at 0.12.
Consider G1C G5U G35A C45U, for which the self-cleavage stood at 0.
The value for G1C C13U G30U A39U C46G was 0.04; that for G1C C10U U34A was 0.02.
The value for G1C C3G G19C G22A A26C U28A G44U was 0.22; that for G1C C10G C18G was 0.01.
With G1C C23G G40U the figure was 0.02; with G1C G5C C45A, 0.01.
Turning to G1C C3G G5A C15A G33U G40U C42U, the self-cleavage is 0.02.
The value for G1C G29A G44C C45G was 0.02; that for G1C C3A C13G A41C was 0.1.
The value for G1C G30U G36A was 0.05.
With G1C G2C U34A the figure was 0.05; with G1C C3U C31G, 0.03; with G1C G2A A4U U28C U34A C42G, 0.44.
As for G1C A24C G40U, the self-cleavage is 0.02.
With G1C C13A G17U G22A G36U G40U the figure was 0.03; with G1C G19U G21U U28A G36C G44A C45A, 0; with G1C G22C G36A U43G, 0.09.
With G1C C13U G21A G30C G40A the figure was 0.01; with G1C G22C C23A U28A, 0.3.
With G1C G2C A4G C8U A26G C42U the figure was 0.03.
With G1C A26U G35U, the self-cleavage was 0.2.
The value for G1C A24G G29U G33A was 0.02.
On to G1C G21U G33C, for which the self-cleavage came out at 0.01.
The value for G1C C15U G33U G35U was 0.05.
With G1C C10G C15U C18U G27A G44U, the self-cleavage came out at 0.
G1C G7U C13U C31G G40C A41C U43A G44A: the self-cleavage was found to be 0.
With G1C G7C G22U U34C G40A C46G the figure was 0.03.
